# About 3,600 (1.6%) of roughly 230,000 compounds were called active. Inconclusive means that the source gave no clear call. Such entries were picked first, then a sample of the others. Calls come from the whole dose curve; as a rule, active = well fitted inhibition curve with a large enough effect (not every such curve was filed as active); inconclusive = small, poorly fitted or top-dose-only effect, or another doubt; inactive = no such curve, though single readings can be large or run the other way. Potencies of inconclusive entries are doubtful fits and often do not repeat.
# Target: Lysine-specific demethylase 4E (Homo sapiens) (UniProt B2RXH2)
# Test: qHTS Assay for Inhibitors of Human Jumonji Domain Containing 2E (JMJD2E)
# Conditions: JMJD2E catalytic domain, FDH-coupled NADH fluorescence (FDH is formaldehyde dehydrogenase); series mostly up to 57.1 µM
# Note: nearly all actives have a fitted effect of over 50% in size.
# Potency is the fitted concentration of half-maximal effect; tags give direction and shape of the fitted curve.
# UniProt B2RXH2, sequence (B2RXH2 whole entry, looked up, the tested form may be a part): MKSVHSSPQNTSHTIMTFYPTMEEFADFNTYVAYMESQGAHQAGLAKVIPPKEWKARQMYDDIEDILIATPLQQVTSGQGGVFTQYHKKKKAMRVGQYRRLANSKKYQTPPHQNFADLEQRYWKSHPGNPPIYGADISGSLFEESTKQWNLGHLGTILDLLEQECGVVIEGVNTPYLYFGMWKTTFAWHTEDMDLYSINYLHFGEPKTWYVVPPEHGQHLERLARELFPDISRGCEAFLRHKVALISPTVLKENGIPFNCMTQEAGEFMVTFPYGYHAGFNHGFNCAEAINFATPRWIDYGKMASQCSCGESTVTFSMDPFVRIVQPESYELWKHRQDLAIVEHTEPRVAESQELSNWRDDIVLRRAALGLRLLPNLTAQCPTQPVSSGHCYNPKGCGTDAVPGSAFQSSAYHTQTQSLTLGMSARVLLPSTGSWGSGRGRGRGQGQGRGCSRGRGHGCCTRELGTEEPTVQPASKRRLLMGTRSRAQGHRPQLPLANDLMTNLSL
row,Compound,Potency
1,Cc1cc(C)c2c(N)c(C(=O)Nc3ncc(C)s3)sc2n1,"inconclusive: 28.2 µM [inhibitor, partial curve]"
2,N#Cc1ccc(C(=O)Nc2nnc(-c3cccs3)o2)cc1,"inconclusive: 39.8 µM [inhibitor, single point]"
3,CC(C)(C)c1ccc(-c2csc(NC(=O)CN3C(=O)NC4(CCCCC4)C3=O)n2)cc1,"inconclusive: 31.6 µM [inhibitor, partial curve]"
4,C=CCn1c(=O)n(CCOC)c(=O)c2sc3ccccc3c21,"inconclusive: 28.2 µM [inhibitor, partial curve]"
5,CC1(C)Oc2cc(N)c([N+](=O)[O-])cc2O1,inactive
6,Cc1ccc(C)c2[nH]c(=O)c(CN(Cc3cccs3)C(=S)NCc3ccco3)cc12,"inconclusive: 39.8 µM [inhibitor, single point]"
7,CCCCNC(=O)CC1N=C2c3ccccc3N=C(SCC(=O)Nc3ccccc3C)N2C1=O (centres undefined),"inconclusive: 28.2 µM [inhibitor, single point]"
8,C#CCOc1ccc2c(C)cc(=O)oc2c1,"inconclusive: 3.16 µM [inhibitor, full curve]"
9,Cc1nnc(SCC(=O)N2CCN(c3ccccc3)CC2)n1-c1ccccc1,"inconclusive: 31.6 µM [inhibitor, partial curve]"
10,Cn1cnnc1SCc1ccc(-c2ccc(Br)cc2)o1,inactive
11,CC(=O)Nc1cccc(NC(=O)Nc2ccc(C(C)=O)cc2)c1,inactive
12,Cc1ccccc1N/N=C/c1ccc(N2CCOCC2)cc1,"inconclusive: 25.1 µM [inhibitor, single point]"
13,CCOC(=O)N1CCN(C(=O)c2cccn3c(=O)c4cc(Cl)ccc4nc23)CC1,"inconclusive: 3.55 µM [inhibitor, full curve]"
14,O=c1oc2ccccc2cc1-c1nc(-c2cccs2)cs1,"inconclusive: 39.8 µM [inhibitor, single point]"
15,CCOC(=O)CNC(=O)/C=C/c1ccc2c(c1)OCO2,"inconclusive: 31.6 µM [inhibitor, partial curve]"
16,CC(C)Oc1ccc(/C=C(\NC(=O)/C=C/c2ccco2)C(=O)NCCc2nc3ccccc3[nH]2)cc1,"inconclusive: 39.8 µM [inhibitor, single point]"
17,O=c1ccc(/C=C/c2ccccc2)nn1Cc1ccc(Cl)cc1Cl,"inconclusive: 35.5 µM [inhibitor, partial curve]"
18,Cc1ccc(CC(=O)NCC(C)C)cc1,inactive
19,CCCc1cc(C(=O)OC)c(NC(=O)c2cc(C)on2)s1,inactive
20,Cc1nn(-c2ccccc2)c(C)c1-c1nnc(-c2c(C)nn(-c3ccccc3)c2C)o1,"inconclusive: 35.5 µM [inhibitor, single point]"
21,CC(C)(C)NC(=S)NNC(=O)c1ccc2ncccc2c1,inactive
22,CC1(C)Cc2c(c(-c3ccco3)nc3sc4c(NCCN5CCOCC5)ncnc4c23)CO1,"inconclusive: 35.5 µM [inhibitor, single point]"
23,COc1cccc(/C=N/NC(=O)CNC(=O)COc2cccc(C)c2)c1O,active: 2.82 µM

row,Compound,Potency
1,CCNC(=S)N=Nc1c(O)[nH]c2ccc([N+](=O)[O-])cc12,inactive
2,Cc1nc2nc(-c3ccccc3)cn2nc1C,"inconclusive: 28.2 µM [inhibitor, partial curve]"
3,O=C(/C=C/c1ccc(Cl)cc1Cl)N1CCN(c2ccc([N+](=O)[O-])c(N3CCOCC3)c2)CC1,inactive
4,COc1cccc(/C=N/Nc2cc(-n3nc(C)cc3-c3ccccc3)ncn2)c1O,inactive
5,CCN(CC)c1ccc(/C=N/n2c(C)cc(C)cc2=O)cc1,"inconclusive: 35.5 µM [inhibitor, single point]"
6,Cc1nn(-c2ccccc2)c(N2CCCC2)c1/C=N/NC(=O)c1cc(-c2cccs2)nc2ccccc12,inactive
7,c1ccc(-c2nc3cc4ccccc4cc3[nH]2)nc1,"inconclusive: 22.4 µM [inhibitor, single point]"
8,Cc1cccc(-n2c(-c3ccncc3)n[nH]c2=S)c1C,inactive
9,C/C(CCN1CCCCc2nc(C)c(C)cc21)=N\O[C@@H](C)CN1CCCCc2nc(C)c(C)cc21,"inconclusive: 35.5 µM [inhibitor, single point]"
10,CS(=O)(=O)NCc1ccc(C(=O)NCc2ccccc2)cc1,"inconclusive: 3.55 µM [inhibitor, full curve]"
11,COc1cc(/C=N/Nc2ccc(C)cc2)cc(Br)c1O,"inconclusive: 25.1 µM [inhibitor, single point]"
12,O=C(Nc1ccc(-c2nc3cccnc3s2)cc1)c1ccco1,"inconclusive: 25.1 µM [inhibitor, partial curve]"
13,CCOc1ccc(-c2nnc(N)o2)cc1,"inconclusive: 39.8 µM [inhibitor, single point]"
14,COc1ccc(-c2nc(C#N)c(NCc3ccc(C)cc3)o2)cc1OC,"inconclusive: 31.6 µM [inhibitor, partial curve]"
15,Oc1ccc(/C=N/NC(=S)NCC2CCCO2)cc1 (centres undefined),inactive
16,CCOC(=O)c1cnc2ccc(C(=O)OC)cc2c1NCCc1ccc(OC)c(OC)c1,"inconclusive: 25.1 µM [inhibitor, single point]"
17,O=C(/C=C/c1ccccc1)CC(=O)c1ccccc1O,"inconclusive: 39.8 µM [inhibitor, single point]"
18,O=C(Nc1ccc(-c2nc3ccccc3o2)cc1)c1ccc2c(c1)OCO2,"inconclusive: 5.01 µM [inhibitor, full curve, poor fit]"
19,CS(=O)(=O)N(CC(=O)Nc1ccccc1C(=O)NCCc1ccccc1)c1ccc2c(c1)OCCO2,"inconclusive: 35.5 µM [inhibitor, single point]"
20,CCOC(=O)CNC(=O)O[C@@H]1C(=O)c2cc(OC)ccc2O[C@H]1c1ccc(OC)c(Br)c1,"inconclusive: 8.91 µM [inhibitor, single point]"
21,Cc1ccc(C=Nc2ccccc2C(=O)Nc2ccccc2)cc1,"inconclusive: 31.6 µM [inhibitor, partial curve]"
22,CCCCn1nc2cc(C(=O)N[C@H](C)C3CCCCC3)ccc2c1OCC,"inconclusive: 28.2 µM [inhibitor, partial curve]"
23,O=C(O)C1Cn2c(nc3c(c2=O)C2(CCCC2)Cc2ccccc2-3)S1 (centres undefined),"inconclusive: 28.2 µM [inhibitor, partial curve]"

row,Compound,Potency
1,Cc1cc(Oc2ccc(N)cn2)cc(C)c1Cl,"inconclusive: 31.6 µM [inhibitor, single point]"
2,CCCCNC(=S)NCc1ccc2[nH]c(C)cc2c1,inactive
3,O=C1c2ccccc2C(=O)N1CCCCN(C(=O)c1cc2ccccc2oc1=O)c1ccc(Cl)cc1,inactive
4,CCOC(=O)c1c(NC(=S)Nc2ccccc2)sc(C)c1C,inactive
5,Cc1cc(=O)n(-c2ccc(O)cc2)[nH]1,"inconclusive: 1.78 µM [inhibitor, full curve, poor fit]"
6,CSc1ncccc1C(=O)Nc1nc2ccc(F)cc2s1,"inconclusive: 28.2 µM [inhibitor, partial curve]"
7,COc1cc(Cl)c(C)cc1NC(=O)c1ccc(NS(=O)(=O)c2ccc(F)c(F)c2)cc1,"inconclusive: 39.8 µM [inhibitor, single point]"
8,CC(C)(C)C(=O)Nc1cc2nn(-c3ccccc3)nc2cc1Cl,"inconclusive: 28.2 µM [inhibitor, partial curve]"
9,CN(C(=O)c1ccc2c(c1)SC1=NS(=O)(=O)CCN12)C(c1ccccc1)c1ccccc1,inactive
10,Cc1nn(-c2ccccc2)c(N2CCCC2)c1/C=N/NC(=O)c1cccc(S(=O)(=O)Nc2ccc(Cl)cc2)c1,"inconclusive: 39.8 µM [inhibitor, single point]"
11,N#Cc1c(C(F)(F)F)cc(-c2ccccc2)[nH]c1=O,"inconclusive: 31.6 µM [inhibitor, partial curve]"
12,CCCOC(=O)C1=C(C)NC2=C(C(=O)C(C(=O)OC)C(C)C2)C1c1ccc(N(C)C)cc1 (centres undefined),"inconclusive: 39.8 µM [inhibitor, single point]"
13,O=C(/C=C/c1ccc(O)c(O)c1)c1ccccc1O,active: 25.1 µM
14,Cc1c([N+](=O)[O-])nnn1-c1cc(Cl)cc(Cl)c1,inactive
15,CCOC(=S)SCC(=O)N1CCc2ccccc2C1C1C(=O)CC(C)(C)CC1=O (centres undefined),"inconclusive: 31.6 µM [inhibitor, single point]"
16,COC(=O)c1cc(C(=O)OC)cc(-n2c(C)cc(C(=O)CC#N)c2C)c1,"inconclusive: 28.2 µM [inhibitor, partial curve]"
17,CCOC(=O)c1c(NC(=O)COC(=O)CCS(=O)(=O)c2ccc(C)cc2)sc(C)c1C,"inconclusive: 39.8 µM [inhibitor, single point]"
18,Cn1c(=O)c2c(nc(CN3CCc4ccccc4C3)n2Cc2ccccc2F)n(C)c1=O,"inconclusive: 35.5 µM [inhibitor, single point]"
19,COc1ccc(/C(C)=N/OC/C(O)=C(\C#N)c2nc3ccccc3[nH]2)cc1OC,"inconclusive: 25.1 µM [inhibitor, single point]"
20,Cc1nn2c(NCc3ccccn3)cc(C(C)(C)C)nc2c1-c1ccccc1,"inconclusive: 28.2 µM [inhibitor, partial curve]"
21,Oc1c(Br)cc(Br)cc1C=Nc1ccc2[nH]ncc2c1,inactive
22,Cc1[nH]c2ccccc2c1CCN(Cc1cccs1)C(=S)Nc1ccccc1,inactive
23,COc1ccc(NS(=O)(=O)c2ccc3oc(Nc4ccc5c(c4)OCCO5)nc3c2)cc1,"inconclusive: 39.8 µM [inhibitor, single point]"

# — PubChem BioAssay AID2147 (National Center for Advancing Translational Sciences (NCATS), 2009)
